The text below walks through data of the RNAGym collection of RNA variant scans (doi:10.7554/elife.90254).

B1: LINE1-mini (parent)
chain: GGCAGAGCUCAACACAGCGUGGCAAAGUGGCUGUGGCUAGACUGCC

The source gives no read counts; variants with many changes may rest on few reads.

In the data set the parent is B1. In words: self-cleavage, relative activity (ratio to wild type); higher = more cleavage; in vitro, sequencing; the parent is a self-cleaving ribozyme.
Take GGCAUAACUCAACAAAGCGUGGCAAAGUGGCUGUGGCUAGACUGCC [G5U G7A C15A]: the self-cleavage was 0.24.
In the case of GGCAUAGCUCAACACAGCGUGGGAAAGUGGCUGUGGCUAGAGUGCC [G5U C23G C42G], the self-cleavage was determined as 0.09.
As for GGCAUAGCUCAACACAGUGUGGCAAAGUGGCAGUGGCUAGACUGCC [G5U C18U U32A], the figure is 0.02.
As for GGCAUAGCUCAACACAGCGUGGCAAAGUGGCUGUGGCUAGAAUGCG [G5U C42A C46G], the figure is 0.16; as for GGCAUAGCUCAACACAGUGUGCCAAAGUGGCUGUGGCUAGACUGCC [G5U C18U G22C], 0.04; as for GGCAUACCUCAACACAGCGUGGCAAAGUGGCUGUGUCUAGACUGCC [G5U G7C G36U], 0.04.
Consider GGCAUACCUCAACACAGCGUGGCAAAGUGGCUGUGACUAGACUGCC [G5U G7C G36A], for which the self-cleavage turned out to be 0.18.
The figure for GGCAUAUCUCAACACAGCGGGGCAAUGUGGCGGUGGCUGGACUGCC [G5U G7U U20G A26U U32G A39G] is 0.29.
The figure for GGCAUAGCUCAACACAGCGUGGAAAAGUGGCUGUGGCUAAACUGCC [G5U C23A G40A] is 0.12.
As for GGCAUAGCUCAACACAGCGUGGAAAAGUGGCUGUGGCGAGACUGCC [G5U C23A U38G], the figure is 0.01.
In the case of GGCAUAGCUCAACACAGCGUGGAAAAGUGGCUGUGGCAAGACUGCC [G5U C23A U38A], the self-cleavage was 0.05.
The figure for GGCAUAUCUCAACACAGCGCGGGAAAGUGGCUGUGGCUAGACUGCC [G5U G7U U20C C23G] is 0.07.
For the variant GGCAUAGCUCAACACAGCGUGGCAAAGUGGUUGUAGCUAGACUGUC [G5U C31U G35A C45U], the self-cleavage was 0.01.
As for GGCAUAGCUCAACACAACGUGGCACAGUGGAUGUGGCUAGACUGCC [G5U G17A A25C C31A], the figure is 0.01; as for GGCAUAGCUCAACACAGCUUGGCAAAGUGGCUGUGACUAGACUCCC [G5U G19U G36A G44C], 0.05; as for GGCAUAGCUCAACACAGCAUGGCAAAGUGGCUGUGGCUUGACUGCC [G5U G19A A39U], 0.06.
The figure for GGCAUAGCUCAACACAGCAUGGCAAACUGGCUGUGGCUAGACUGCC [G5U G19A G27C] is 0.06; for GGCAUACCUCAAAACAGCGUGGCAAAGUGGCUUUGGCUAGACUGCC [G5U G7C C13A G33U] it is 0.05.
The figure for GGCAUAGCUCAACACAGCGUGGUAAUGUGGCUGUGGCUAGACUGCC [G5U C23U A26U] is 0.94; for GGCAUAGCUCAACACAGCGUGGGAAAGUGGCUGUGGCUAGACUUCC [G5U C23G G44U] it is 0.05.
Turning to GGCAUAGCUCAACACAUCGUGGCAAAGUGGCUGUGGCAAGACAGCC [G5U G17U U38A U43A], the self-cleavage amounted to 0.12.
Regarding GGCAUAGCUCAACACAGCGUGGUAAAGUGGCUGUGGAUAGACUGCC [G5U C23U C37A], the self-cleavage is 0.62.
The figure for GGCAUAGCUCAACACAGCGUGGGAAACUGGCUGUGCCUAGACUGCC [G5U C23G G27C G36C] is 0.01; for GGCAUAGCUCAACACAGCGUGGCAAAGUGGUUGUGGAUAGACUGCC [G5U C31U C37A] it is 0.07.
As for GGCAUACCUCAACAAAGCGUGGCAAAGUGGCUGUGGCUAGACUGCC [G5U G7C C15A], the self-cleavage came out at 0.07.
Turning to GGCAUAGCUCAACACAGUGUGGUAAAGUGGCUGUGGCUAGACUGCC [G5U C18U C23U], the self-cleavage came out at 0.02.
As for GGCAUAUGUCAACACAGCGUGGCAAAGUGGCUGUGGCUAGACUUCC [G5U G7U C8G G44U], the figure is 0.45; as for GGCAUAGCUCAACACAGCGUGGCAAAGUGGGUGUGGCUAGACGGCC [G5U C31G U43G], 0.
The figure for GGCAUAGCUCAACACAUCGUGGCAAAGUGCCUGUGGCUAGACUGCC [G5U G17U G30C] is 0.13; for GGCAUAGCUCAACACAGCUUGGCAAAGUGGCAGUGGCUCAACUGCC [G5U G19U U32A A39C G40A] it is 0.
On to GGCAUACCGCAACAUAGCGUGGCAAAGUGGCUGUGGCUAGACUACC [G5U G7C U9G C15U G44A], for which the self-cleavage was 0.22.
As for GGCAUAACUAAACACAGCGUUGCAAAGUGGCUGUGGCUAGACUGCC [G5U G7A C10A G21U], the self-cleavage was 0.04.
As for GGCAUAGCUCAACACAGUUUGGCAAAGUGGCGGUGUCUAGCCUGCC [G5U C18U G19U U32G G36U A41C], the figure is 0.02; as for GGCAUAGCUCAACACAGCAUGGCAAAGUGGCGGUGGAUCGUCUGUC [G5U G19A U32G C37A A39C A41U C45U], 0.02; as for GGCAUAGCUCAACACAUCGUGGCAAAGUGGCUGUGGCUAGCCUGCC [G5U G17U A41C], 0.04.
As for GGCAUACAUCAACACAGCGUGGCAAAGUGGCUGUGGCUAGACUGCC [G5U G7C C8A], the figure is 0.49.
For the variant GGCAUAGCUCAACACAGCUUGUCAAAGUGGCUGUGGCUAGACUGCC [G5U G19U G22U], the self-cleavage is 0.03.
With GGCAUAGCUCAACACAGCCUGGCAAAGUGGCCGUGGCUAGACUGCC [G5U G19C U32C], the self-cleavage was found to be 0.02.
As for GGCAUAGCUCAACACAUCGUGGCAAAGUGGCUGUGGCGAGACUGCC [G5U G17U U38G], the figure is 0.02; as for GGCAUACCUCAACACAGCGUCGCAAAGUGGCUGUGGCUUGACUGCC [G5U G7C G21C A39U], 0.03; as for GGCAUAGCUCAACACAGCGUGGAAAAGUGGCUUUUGCUAGACUGCC [G5U C23A G33U G35U], 0.02.
For the variant GGCAUACCUCAAGACAGCGUGGCAAAGUGGCUGUGGCUAGACUGCC [G5U G7C C13G], the self-cleavage was found to be 0.07.
As for GGCAUAGCUCAACACAGCGUAGCCAAGUGGCUGUGGCUAGACUGCU [G5U G21A A24C C46U], the figure is 0.06; as for GGCAUAGCUCAACACAGCGUGGGAAAGUGGAUGUGGCUAGACUGCC [G5U C23G C31A], 0.01.
As to GGCAUAGCUCAACACAGCGUGGAAAAGUAGCUGUGGCUUGCCUGCC [G5U C23A G29A A39U A41C], the self-cleavage turned out to be 0.2.
On to GGCAUAGCUCAACACAGCUUGGCAAAGUGGCUGUGGCUAGAGUGCC [G5U G19U C42G], for which the self-cleavage amounted to 0.02.
The figure for GGCAUAACUCAACACAGCGGGGCAAAGUGACUGUGGCUAGAUGGCC [G5U G7A U20G G30A C42U U43G] is 0.09; for GGCAUAACUCAACACAGCGUGGGAAAGUGGCUCUGGGUAGACUGCC [G5U G7A C23G G33C C37G] it is 0.05.
Regarding GGCAUAGCUCAACACAGGCUGGCAAAGUGACUGUGGCUAGACUGGC [G5U C18G G19C G30A C45G], the self-cleavage amounted to 0.05.
The figure for GGCAUAGCUCAACACAGCGUGGGAAAGUGGCCGAGGCUCGACUGCC [G5U C23G U32C U34A A39C] is 0.01; for GGCAUACCUCAACACAACGUGGCAAAGUGGCUGUGGCUAGACUGCC [G5U G7C G17A] it is 0.03; for GGCAUAGCUCAACACAGCAUGGCAAAGUGGAUGUAGCUAGACGGCC [G5U G19A C31A G35A U43G] it is 0.
As to GGCAUAACUCAACACAGCGUGGCAAAGUGGCUGUGGCUAGAUUGCC [G5U G7A C42U], the self-cleavage turned out to be 0.77.
As to GGCAUAGCUCAACACAGCUUGGCAAAGUGGCUGUUGCUAGAGUGCC [G5U G19U G35U C42G], the self-cleavage came out at 0.03.
As for GGCAUAGCUCAACACAGAGUGGCAAAGUGUCUGUGGCUAGACUGCC [G5U C18A G30U], the figure is 0.05; as for GGCAUAUCUCAACACUUCGAGGCCAAGUGGCUGAGGCUAGACUGCC [G5U G7U A16U G17U U20A A24C U34A], 0.02.
